Experiment [1] deals with T1, human CXCL10 (human, UniProt P02778 22-98).
T1 construct: Two bought lots of the same protein are treated as one molecule; also called hCXCL10; IP-10
Briefly: Biacore SPR, antibody captured on protein A (CM3 chip), human CXCL10 as analyte at 3.125, 1.563, 0.781 nM, 25 C. Background: SPR reads the build-up and loss of mass on a sensor chip optically.

For experiment [2], the target named is T1, human CXCL10. The experiment can be described thus: Biacore SPR, antibody captured on protein A (CM3 chip), human CXCL10 as analyte at 6.25, 3.125, 1.563, 0.781 nM, 300 mM NaCl, 25 C.

B1: EEIVH/EEIVLG (antibody, human IgG1)
heavy: QMQLVESGGGVVQPGRSLRLSCTASGFTFSNNGMHWVRQAPGKGLEWVAVIWFDGMNKFYVDSVKGRFTISRDNSKNTLYLEMNSLRAEDTAIYYCAREGDGSGIYYYYGMDVWGQGTTVTVSS[human IgG1 constant region not given here]
light: [about 100 residues not given here]TFGPGTKVDIKRTVALSGRSDNHAPSVFIFPPSDEQLKSGTASVVCLLNNFYPREAKVQWKVDNALQSGNSQESVTEQDSKDSTYSLSSTLTLSKADYEKHKVYACEVTHQGLSSPVTKSFNRGEC
notes: IgG1
For B1, the binding result in experiment [1] was “binds”.

B2: EEIVHC002/EEIVL (antibody, human IgG1, kappa)
heavy: QMQLVESGGGVVQPGRSLRLSCTASGFTFSNNGMHWVRQAPGKGLEWVAVIWFDGMNKFYVDSVKGRFTISRDNSKNTLYLEMNSLRAEDTAIYYCAREGDGSGIYYYYGMDVWGQGTTVTVGLSGRSDNHGSS[human IgG1 constant region not given here]
light: [about 100 residues not given here][about 120 residues not given here]
notes: IgG1
In the case of B2, in experiment [2], the binding result is listed as “binds”.

B3: EEIVHC005/EEIVL (antibody, human IgG1, kappa)
heavy: QMQLVESGGGVVQPGRSLRLSCTASGFTFSNNGMHWVRQAPGKGLEWVAVIWFDGMNKFYVDSVKGRFTISRDNSKNTLYLEMNSLRAEDTAIYYCAREGDGSGIYYYYGMDVWGQGTTVTVGGSGLSGRSDNHGSSGSS[human IgG1 constant region not given here]
light: [about 100 residues not given here][about 120 residues not given here]
notes: IgG1
With B3, the binding result in experiment [2] was “binds”.

B4: EEIVHC004/EEIVL (antibody, human IgG1, kappa)
heavy: QMQLVESGGGVVQPGRSLRLSCTASGFTFSNNGMHWVRQAPGKGLEWVAVIWFDGMNKFYVDSVKGRFTISRDNSKNTLYLEMNSLRAEDTAIYYCAREGDGSGIYYYYGMDVWGQGTTVTVGSGLSGRSDNHGSSSS[human IgG1 constant region not given here]
light: [about 100 residues not given here][about 120 residues not given here]
notes: IgG1
With B4, the binding result in experiment [2] is reported as “binds”.

B5: EEIVHC003/EEIVL (antibody, human IgG1, kappa)
heavy: QMQLVESGGGVVQPGRSLRLSCTASGFTFSNNGMHWVRQAPGKGLEWVAVIWFDGMNKFYVDSVKGRFTISRDNSKNTLYLEMNSLRAEDTAIYYCAREGDGSGIYYYYGMDVWGQGTTVTVSGLSGRSDNHGSSS[human IgG1 constant region not given here]
light: [about 100 residues not given here][about 120 residues not given here]
notes: IgG1
For the molecule B5, the binding result in experiment [2] was “binds”.

Values taken from patent US20250034756A1 (Chugai, published 2025).
